# Test results published in the supplement of paper PMC3334620.
# In all, about 33,000 sequences were measured (“E-score (-0.5 to 0.5)”: median about -0.054, highest 2% from about 0.35 on). The list shows a part of the results.
# Target: T1, Stb5 (UniProt P38699)
# T1 sequence: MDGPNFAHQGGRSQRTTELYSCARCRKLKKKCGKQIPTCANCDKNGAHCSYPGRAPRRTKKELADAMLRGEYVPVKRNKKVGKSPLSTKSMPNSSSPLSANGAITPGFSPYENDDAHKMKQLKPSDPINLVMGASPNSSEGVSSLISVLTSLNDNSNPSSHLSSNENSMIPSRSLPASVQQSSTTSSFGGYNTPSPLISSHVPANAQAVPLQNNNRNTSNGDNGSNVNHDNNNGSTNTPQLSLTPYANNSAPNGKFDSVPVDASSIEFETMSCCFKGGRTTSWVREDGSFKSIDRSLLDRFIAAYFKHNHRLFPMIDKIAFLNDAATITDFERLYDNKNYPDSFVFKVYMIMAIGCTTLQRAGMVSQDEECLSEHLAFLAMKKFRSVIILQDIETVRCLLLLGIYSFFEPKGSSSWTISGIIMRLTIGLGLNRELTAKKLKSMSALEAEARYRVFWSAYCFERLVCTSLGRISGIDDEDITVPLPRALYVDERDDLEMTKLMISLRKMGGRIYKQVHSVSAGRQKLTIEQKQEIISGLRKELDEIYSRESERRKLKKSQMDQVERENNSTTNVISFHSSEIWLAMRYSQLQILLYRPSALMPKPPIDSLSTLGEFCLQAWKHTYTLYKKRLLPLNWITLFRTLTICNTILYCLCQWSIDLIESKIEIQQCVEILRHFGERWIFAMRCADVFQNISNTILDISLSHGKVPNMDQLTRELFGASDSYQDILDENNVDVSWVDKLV
# Experiment: PBM E-score (8-mer binding enrichment) (E-score (-0.5 to 0.5)); higher = stronger / more preferred TF binding; most listed sequences are background and not binding sites
# Settings: protein concentration: 200 nM; construct: GST-full length
# Method in brief: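 Universal all-10-mer Agilent arrays, double-stranded by primer extension on fresh or once-stripped slides, were probed with about 100-200 nM GST-tagged yeast transcription factors made by PURExpress. Fluorescent anti-GST detected bound protein, and masliner normalised the scans. E-scores from the Universal PBM Analysis Suite were given to each ungapped eight-base word pooled with its reverse complement.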
row,Sequence,PBM E-score
1,CGGACACC,0.155
2,TAGTCTGA,-0.232
3,AGCGGAGC,0.31
4,GGGCGTTA,0.0794
5,GTCCGACA,0.403
6,GGCAAATA,0.16
7,CATCGGGA,0.261
8,ACACCGAC,0.466
9,ATGATTTA,-0.148
10,GTCCCATA,-0.0984
11,CAGGAGGG,-0.267
12,CCGCCGCA,0.301
13,CGTCCACA,-0.101
14,CTCTCATC,-0.23
15,CCCGGATA,0.113
16,CGGATCAA,0.139
17,GTAATATA,0.141
18,AACCTTCT,-0.165
19,CGGGCACG,0.0792
20,ACTGGGCA,-0.176
21,ACGTCGCA,-0.182
22,GTATGCTA,0.0865
23,CCGCTAGG,0.318
24,CACCACAA,-0.0283
25,ACAAACCT,-0.153

row,Sequence,PBM E-score
1,AATTTCAA,-0.0884
2,CTCGTAAC,0.0106
3,GTAAGAAC,0.0951
4,TATCACGA,-0.177
5,ATATAAGG,0.146
6,CCATCAGG,-0.0653
7,GGGCTGAA,0.0986
8,ATCGATTC,-0.187
9,CGTTGCCA,-0.0921
10,CACACACG,0.162
11,AGAGATAA,-0.0777
12,AGTTTTTC,-0.00974
13,CGTGGACC,0.136
14,AACGCAGA,-0.102
15,ATCGGCTG,-0.016
16,GTGTCCCA,0.0445
17,AGGTCGAG,-0.275
18,CAGCGAAC,-0.106
19,GGAGGCAA,0.128
20,GCGCAATA,0.0679
21,ATCAGGGG,-0.316
22,AGAAGGGC,-0.0504
23,GGCACATA,0.0318
24,CCGGGCGA,0.0763
25,GCATAATA,0.0352

row,Sequence,PBM E-score
1,AGGACGGA,0.168
2,AAGCAGGG,-0.152
3,AAACCGAG,-0.0377
4,ATGACACG,0.0248
5,AGCGTCGC,-0.0135
6,ACAATTTG,-0.0255
7,AAACTGTA,-0.0312
8,GGTGGGGA,-0.126
9,CACTAAAC,0.0275
10,AAACGGCG,0.236
11,AGTGTAAT,-0.107
12,AAATATAA,0.232
13,CCACGAGG,-0.223
14,CTGTCCAC,-0.102
15,ACTACAGC,0.037
16,GCCAGCAC,-0.126
17,GTTAGGAA,0.0588
18,TCCGGAAA,0.119
19,TCGACGAA,-0.306
20,CGCACCCG,0.113
21,CACATGAG,-0.216
22,ATGCCCGC,0.366
23,TAGACGCA,-0.14
24,ACTTAAAC,-0.0316
25,CAACTACC,0.0237

row,Sequence,PBM E-score
1,CGAGCGCA,0.11
2,AGCGAGGA,-0.0136
3,CCGGGCGC,0.259
4,CATGAAAG,-0.0152
5,CATACGGA,0.224
6,AGGGCAAA,-0.105
7,ATGTGTTC,-0.157
8,GCTGCAAC,-0.0572
9,GCGCAAAC,-0.107
10,AGACGCAA,-0.048
11,AAATAACG,0.154
12,GCAGAGGC,-0.0538
13,CGGGCGAG,-0.156
14,ATCGCCTG,-0.215
15,GGGCAGAA,-0.0851
16,GGATTCTA,0.119
17,ATTGAGAC,-0.0695
18,CACTTTAG,-0.063
19,GGATGTAA,0.272
20,ATCTGTTC,-0.189
21,CTCGTAGC,-0.0277
22,AGCAGATC,-0.35
23,ATATTTGC,0.0728
24,ATCGCAGG,-0.234
25,GAGCGTGC,-0.0824

row,Sequence,PBM E-score
1,CGTCTCCC,0.0115
2,AACACGCA,-0.0648
3,AGTACAAT,-0.0302
4,GCATGCGC,-0.0361
5,AGACTTGA,-0.246
6,TGTTGGAA,-0.0526
7,CATGCCCC,0.0218
8,GGCTCAAC,-0.142
9,TGTGCAAA,-0.143
10,CATATCTA,-0.03
11,CCGAAATC,0.152
12,CCCTTACG,-0.0846
13,CGTCTTAC,-0.183
14,AGCGGGTA,0.0916
15,CAACAACC,-0.0208
16,CCTCTGAC,-0.00317
17,AAGATCAT,-0.0362
18,CTAAGTTA,-0.142
19,CGAGCCAC,-0.14
20,TCCTCAGA,-0.0929
21,CGCGCAAG,0.0272
22,ACATTTTG,-0.253
23,ACAGAAGA,-0.126
24,GTACGCTA,-0.033
25,CCACAAAG,-0.0447

row,Sequence,PBM E-score
1,CCGAATAA,0.103
2,ACCCACAT,0.111
3,ACGGTGTG,0.288
4,AATCTTCT,0.0418
5,AGAATCCG,0.208
6,TCGGGAGA,-0.0198
7,ATGCCCCA,-0.147
8,CGACTAGC,0.189
9,AGACACGG,0.163
10,CTGTCTTA,0.0377
11,CAAGGAGG,-0.182
12,AGCCGAGA,-0.0727
13,GGCACCCC,0.00197
14,CTGCGAAG,-0.308
15,AACAGAGC,-0.128
16,CCGCTGCA,0.201
17,ATCAGGAA,-0.203
18,ATAGACGC,0.123
19,CTGTGACA,-0.171
20,AACATCTG,0.0176
21,ATGGCTTA,-0.119
22,TTCACGAA,0.0251
23,ACCTATCG,0.208
24,ACAAGGGG,-0.206
25,TACTTTAA,-0.0822

row,Sequence,PBM E-score
1,AGGGCTTC,-0.317
2,GGCCGATA,0.266
3,ATCAAGAT,0.0647
4,GCCATTAC,0.0843
5,CAGGCCCC,-0.164
6,CATTCCGG,0.096
7,CCAATATA,-0.07
8,GCTATAGC,0.169
9,CAGCAATA,-0.0729
10,CCCCAGTC,-0.183
11,AAGCTAGG,-0.0484
12,GCCCTTTA,0.0391
13,GCTTGTTA,0.00248
14,AATAAGCT,0.0419
15,ACCACCAT,-0.138
16,GATTTAAA,0.00462
17,CGTCTTGC,0.0134
18,AGATGCCG,0.323
19,AAGTAGGC,-0.125
20,AGGGGATG,-0.119
21,ACGATGGA,-0.152
22,ATTGATGA,-0.158
